In experiment [1] the target is human Thyroid Receptor alpha (THRa1), THRA (gene 7067) (UniProt P10827). Briefly: ATG_THRa1_TRANS: Attagene TRANS-FACTORIAL HepG2 Assay for human Thyroid Receptor alpha (THRa1) (AID 2283014). In a few lines: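 First, HepG2 cells receive multiple GAL4-UAS reporter units and the chimeric receptor. They are then dosed for 24 h, after which RNA is reverse-transcribed, amplified, labelled, HpaI-cut and sized by capillary electrophoresis; gain relative to DMSO is scored.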

The target of experiment [2] is human Vitamin D Receptor (VDR), VDR (gene 7421) (UniProt P11473). Kind of experiment: ATG_VDR_TRANS: Attagene TRANS-FACTORIAL HepG2 Assay for human Vitamin D Receptor (VDR) (AID 2283022). In a few lines: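 Fluorescence of labelled reporter cDNA fragments, resolved by capillary electrophoresis, gives mRNA induction after 24 h treatment of HepG2 cells carrying transfected Gal4-fusion reporter units. Activity is fitted in the positive direction with DMSO as baseline.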

Experiment [3] is described as follows: CEETOX_H295R_OHPROG: CeeTox H295R High-throughput Steroidogenesis Assay for OH-Progesterone (OHPROG) (AID 2283435; active = hit-call score of the fitted dose curve at least 0.9, where 1 is the maximum; inactive = score below 0.9;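 for AC50: 17alpha-hydroxyprogesterone secreted into medium measured by HPLC-MS/MS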). The settings on record: actives raise or lower the signal.
Experiment [4] can be described thus: CEETOX_H295R_CORTISOL: CeeTox H295R High-throughput Steroidogenesis Assay for Cortisol (AID 2283438; active = hit-call score of the fitted dose curve at least 0.9, where 1 is the maximum; inactive = score below 0.9;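 note: cortisol secreted into medium quantified by LC-MS/MS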). The settings on record: actives raise or lower the signal. In a few lines:
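H295R human adrenal cells were prestimulated 48 h with 10 uM forskolin, then exposed 48 h to test chemical (0.1% DMSO final). Medium cortisol was quantified by HPLC-MS/MS after MTBE extraction; bidirectional fitting relative to DMSO baseline.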

The nature of experiment [5]: CEETOX_H295R_PROG: CeeTox H295R High-throughput Steroidogenesis Assay for Progesterone (PROG) (AID 2283442; active = hit-call score of the fitted dose curve at least 0.9, where 1 is the maximum; inactive = score below 0.9). The note with it: actives raise or lower the signal. In a few lines:
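Adrenal H295R line, forskolin-stimulated (10 uM, 48 h) before dosing. 48 h exposure, 0.1% DMSO vehicle. Secreted progesterone by reverse-phase HPLC with ESI+ MS/MS quantification; DMSO-normalised bidirectional curve fit.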

A short description of experiment [6]: ATG_XTT_Cytotoxicity: Cytotoxicity Assessment in the Attagene TRANS-FACTORIAL HepG2 Assay (AID 2283584). In a few lines:
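Transfect HepG2 with GAL4-UAS reporter units, dose compound, incubate 24 h, then measure viable cell number by XTT. Fit concentration response against DMSO baseline.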

In experiment [7] the target is Retinoic acid receptor RXR-alpha (Homo sapiens) (UniProt P19793). Kind of experiment: ATG_RXRa_TRANS: Attagene TRANS-FACTORIAL HepG2 Assay for human Retinoid X Receptor alpha (RXRa) (AID 2283012). In a few lines:
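HepG2 cells transiently transfected with multiplexed GAL4-UAS reporter units and chimeric NR-GAL4 fusions, dosed 24 h. Reporter mRNA measured by RT-PCR, FAM labelling, HpaI digestion and capillary electrophoresis; gain-of-signal fitted relative to DMSO baseline.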

For experiment [8], the target named is human Retinoid X Receptor beta (RXRb), RXRB (gene 6257) (UniProt P28702). Kind of experiment: ATG_RXRb_TRANS: Attagene TRANS-FACTORIAL HepG2 Assay for human Retinoid X Receptor beta (RXRb) (AID 2283013). In a few lines:
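HepG2 cells transiently transfected with multiplexed reporter units driven by GAL4-UAS and exogenous chimeric NR-Gal4 proteins; treated 24 h. Reporter mRNA measured by RT-PCR, 6-FAM labelling and capillary electrophoresis; gain-of-signal fitted versus DMSO baseline.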

Experiment [9] addresses Retinoic acid receptor RXR-alpha (Homo sapiens) (UniProt P19793). Briefly: OT_NURR1_NURR1RXRa_1440: Odyssey Thera (OT) 24-hour HEK293T Protein Complementation Assay for Nurr1/retinoid X receptor (RXR) (AID 2283386). In a few lines: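 HEK293T cells were dosed with compound and read 24 h later by fluorescence intensity in a protein-fragment complementation format, where Nurr1–RXRα interaction reconstitutes a split reporter. Activity was fitted as gain of signal relative to DMSO baseline.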

Experiment [10] deals with Cellular tumor antigen p53 (Homo sapiens) (UniProt P04637). Kind of experiment: TOX21_p53_BLA_p3_ratio: Tox21 HCT-116 p53 Agonism Beta-lactamase Assay, Ratio, Phase 3 (AID 2283596). In a few lines: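 HCT116 p53-bla cells (4000/well) given compound in DMSO (217-fold dilution) after 5 h, incubated 16 h at 37C. CCF4-AM substrate 2 h at room temperature; 460/530 nm emission ratio, gain fitted against DMSO.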

Read-out in experiment [11]: Pselectin, SELP (gene 6403)
Briefly: BSK_4H_Pselectin: BioMAP Diversity Plus: 4H Assay for Pselectin Biomarker Activity (AID 2283026; active = hit-call score of the fitted dose curve at least 0.9, where 1 is the maximum; inactive = score below 0.9). The note with it: actives raise or lower the signal; primary human endothelial cells (HUVEC). In a few lines: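 Primary human umbilical vein endothelial cells were exposed to test chemical for 24 h, then cell-surface P-selectin was quantified by ELISA. Activity was fitted bidirectionally against DMSO as negative control and baseline.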

Read-out in experiment [12]: Interleukin-1 alpha (IL1a), IL1A (gene 3552)
Briefly: BSK_KF3CT_IL1a: BioMAP Diversity Plus: KF3CT Assay for Interleukin-1 alpha (IL1a) Biomarker Activity (AID 2283070; active = hit-call score of the fitted dose curve at least 0.9, where 1 is the maximum; inactive = score below 0.9). The settings on record: actives raise or lower the signal; primary human keratinocytes with fibroblasts. In a few lines: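 Chemicals were dosed onto co-cultured human keratinocytes and foreskin fibroblasts, IL-1a was quantified by ELISA at 24 h, and activity was fitted in both directions relative to DMSO controls.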

Read-out in experiment [13]: Interleukin-1 alpha (IL1a), IL1A (gene 3552)
Kind of experiment: BSK_LPS_IL1a: BioMAP Diversity Plus: LPS Assay for Interleukin-1 alpha (IL1a) Biomarker Activity (AID 2283080; active = hit-call score of the fitted dose curve at least 0.9, where 1 is the maximum; inactive = score below 0.9). The note with it: actives raise or lower the signal; primary human HUVEC with PBMC. In a few lines:
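Measured: IL-1 alpha via ELISA at 24 h in LPS-activated human umbilical vein endothelium–PBMC co-culture. Baseline: DMSO, bidirectional fitting.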

Experiment [14] concerns the target human CYP19A1, CYP19A1 (gene 1588) (UniProt P11511). Kind of experiment: NVS_ADME_hCYP19A1: NovaScreen (NVS) CYP450-related Enzyme Activity (ADME) Assay for human CYP19A1 (AID 2283098). In a few lines:
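Biochem, cell-free; recombinant enzyme + specific substrate; fluorescence intensity at 0.5 h post-dose; 10 uM duplicate primary, conc. series for actives; acetonitrile = negative control/baseline; positive and negative controls on every plate.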

In experiment [15] the target is Sodium channel protein type 1 subunit alpha (Rattus norvegicus) (UniProt P04774). Kind of experiment: NVS_IC_rNaCh_site2: NovaScreen (NVS) Ion Channel Assay for rat Sodium Channel, Site 2 (NaCh) (AID 2283322).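 Note: hit means loss of radioligand binding signal relative to DMSO so AC50 marks displacement.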
Experiment [16] in a line: Tanguay_ZF_120hpf_SOMI_legacy: (Legacy) Oregon State University Tanguay Lab 120 Hour Post-fertilization zebrafish Assay for Somite Malformation (AID 2283647). In a few lines:
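5D WT zebrafish; chorion removed 4 hpf; 1 embryo/well from 6 hpf; static exposure to 120 hpf, 28C, 0.64% DMSO final. Endpoint: somite malformation, binary, brightfield. Mortality excluded.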

SMILES strings stand for the structures. Values joined by “and” are separate entries in the source; they are usually repeats but may differ in a detail not shown here. Equal values may be shown once. For part of these data: What follows is the remainder of the data, with few or none of the hits. Results filed as inconclusive are left out. More than one record can exist for a structure, and the calls need not agree. This is a selection; strong and weak results do not stand in their true shares. Active and inactive are the calls of the source. Rule for the calls, unless noted: active = hit-call score of the fitted dose curve at least 0.9, where 1 is the maximum; inconclusive = response in the unintended direction; inactive = score below 0.9.

Sequence of UniProt P19793 (P19793 whole entry, looked up, the tested form may be a part): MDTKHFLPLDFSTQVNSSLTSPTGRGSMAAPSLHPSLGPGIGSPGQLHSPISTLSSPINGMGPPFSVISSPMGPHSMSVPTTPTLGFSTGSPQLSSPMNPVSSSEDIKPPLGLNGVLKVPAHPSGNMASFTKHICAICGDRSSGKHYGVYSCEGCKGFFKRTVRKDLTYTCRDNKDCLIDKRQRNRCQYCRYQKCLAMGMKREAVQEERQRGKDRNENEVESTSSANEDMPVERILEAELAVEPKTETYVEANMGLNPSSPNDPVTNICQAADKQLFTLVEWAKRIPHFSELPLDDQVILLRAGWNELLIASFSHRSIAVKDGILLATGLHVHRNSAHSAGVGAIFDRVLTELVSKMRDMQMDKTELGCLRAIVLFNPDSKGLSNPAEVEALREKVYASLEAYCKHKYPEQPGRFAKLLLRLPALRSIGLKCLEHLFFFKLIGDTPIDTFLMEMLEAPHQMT
Sequence of UniProt P11473 (P11473 whole entry, looked up, the tested form may be a part): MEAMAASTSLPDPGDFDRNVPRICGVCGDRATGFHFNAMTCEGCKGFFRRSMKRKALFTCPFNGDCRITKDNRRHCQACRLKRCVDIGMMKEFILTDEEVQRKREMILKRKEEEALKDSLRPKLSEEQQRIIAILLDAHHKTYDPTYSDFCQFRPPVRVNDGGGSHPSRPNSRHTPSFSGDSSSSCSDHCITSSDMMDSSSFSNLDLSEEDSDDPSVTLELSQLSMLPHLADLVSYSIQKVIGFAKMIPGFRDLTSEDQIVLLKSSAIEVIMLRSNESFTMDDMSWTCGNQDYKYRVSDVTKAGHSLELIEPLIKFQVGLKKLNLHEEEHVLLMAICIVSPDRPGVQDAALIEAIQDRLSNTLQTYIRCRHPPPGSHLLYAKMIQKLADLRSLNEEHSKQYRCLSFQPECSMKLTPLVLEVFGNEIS
Sequence of UniProt P10827 (P10827 whole entry, looked up, the tested form may be a part): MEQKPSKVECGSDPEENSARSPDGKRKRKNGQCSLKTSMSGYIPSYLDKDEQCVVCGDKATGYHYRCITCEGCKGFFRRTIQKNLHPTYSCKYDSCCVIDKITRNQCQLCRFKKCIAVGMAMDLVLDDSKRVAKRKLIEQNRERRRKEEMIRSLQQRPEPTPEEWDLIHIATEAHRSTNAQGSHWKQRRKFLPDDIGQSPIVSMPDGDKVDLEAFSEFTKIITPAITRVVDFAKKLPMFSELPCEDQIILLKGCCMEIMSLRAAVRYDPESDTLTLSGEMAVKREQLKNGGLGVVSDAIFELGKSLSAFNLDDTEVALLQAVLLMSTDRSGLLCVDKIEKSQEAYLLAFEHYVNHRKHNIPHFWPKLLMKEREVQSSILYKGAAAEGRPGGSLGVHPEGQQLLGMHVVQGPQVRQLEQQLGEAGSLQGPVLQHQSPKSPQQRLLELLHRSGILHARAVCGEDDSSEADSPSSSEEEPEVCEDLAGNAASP
Sequence of UniProt P28702 (P28702 whole entry, looked up, the tested form may be a part): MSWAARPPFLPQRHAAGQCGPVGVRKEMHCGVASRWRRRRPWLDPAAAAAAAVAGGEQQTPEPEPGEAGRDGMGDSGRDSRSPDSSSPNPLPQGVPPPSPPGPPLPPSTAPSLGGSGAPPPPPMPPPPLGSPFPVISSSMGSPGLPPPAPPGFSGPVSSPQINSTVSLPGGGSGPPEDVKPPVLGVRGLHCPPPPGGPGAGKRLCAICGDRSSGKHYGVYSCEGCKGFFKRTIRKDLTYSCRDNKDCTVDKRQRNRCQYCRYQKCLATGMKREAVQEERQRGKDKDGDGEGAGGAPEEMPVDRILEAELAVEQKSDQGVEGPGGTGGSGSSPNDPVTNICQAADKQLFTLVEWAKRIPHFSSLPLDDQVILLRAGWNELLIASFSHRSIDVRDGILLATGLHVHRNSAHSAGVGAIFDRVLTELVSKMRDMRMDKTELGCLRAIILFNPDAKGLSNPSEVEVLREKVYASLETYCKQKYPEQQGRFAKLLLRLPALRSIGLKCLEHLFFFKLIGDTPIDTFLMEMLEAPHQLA
Sequence of UniProt P04637 (P04637 whole entry, looked up): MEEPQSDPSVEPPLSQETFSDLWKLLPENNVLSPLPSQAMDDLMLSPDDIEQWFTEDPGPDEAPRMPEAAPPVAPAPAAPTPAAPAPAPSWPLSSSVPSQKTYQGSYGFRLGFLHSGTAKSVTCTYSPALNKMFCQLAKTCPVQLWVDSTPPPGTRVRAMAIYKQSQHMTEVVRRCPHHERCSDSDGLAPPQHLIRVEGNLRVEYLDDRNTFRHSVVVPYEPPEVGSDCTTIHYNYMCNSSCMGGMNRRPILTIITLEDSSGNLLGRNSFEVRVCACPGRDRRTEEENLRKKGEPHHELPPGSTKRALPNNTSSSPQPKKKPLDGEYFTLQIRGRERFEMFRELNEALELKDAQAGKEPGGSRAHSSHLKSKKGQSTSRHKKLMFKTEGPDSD
Sequence of UniProt P11511 (P11511 whole entry, looked up): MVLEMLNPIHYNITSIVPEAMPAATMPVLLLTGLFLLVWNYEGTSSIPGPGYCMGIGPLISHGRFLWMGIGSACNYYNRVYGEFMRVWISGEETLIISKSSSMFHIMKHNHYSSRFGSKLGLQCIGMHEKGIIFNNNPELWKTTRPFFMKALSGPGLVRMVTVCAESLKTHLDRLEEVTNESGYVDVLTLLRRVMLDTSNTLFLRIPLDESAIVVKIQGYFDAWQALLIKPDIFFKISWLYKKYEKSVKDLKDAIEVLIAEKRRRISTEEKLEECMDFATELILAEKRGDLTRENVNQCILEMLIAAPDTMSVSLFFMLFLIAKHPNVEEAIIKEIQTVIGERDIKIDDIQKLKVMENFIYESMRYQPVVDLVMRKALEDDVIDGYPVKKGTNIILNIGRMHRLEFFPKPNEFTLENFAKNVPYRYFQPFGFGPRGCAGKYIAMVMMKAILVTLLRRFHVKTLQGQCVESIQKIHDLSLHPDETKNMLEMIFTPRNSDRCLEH

For `Cc1ccc(N)cc1N`, the compound was called inactive in [1], in experiment [2], in experiment [3], in experiment [4], in experiment [5] and in experiment [6].

On to `O=[N+]([O-])c1cc(C(F)(F)F)c(Cl)c([N+](=O)[O-])c1Cl`, for which the AC50 (as a rule, the midpoint of the concentration-response curve, whichever way the signal moves) in experiment [7] was active: 33.4 µM. The result in [2] was inactive.

For the compound `COc1nc(C)nc(NC(=O)NS(=O)(=O)c2ccccc2Cl)n1`, the compound was classed as inactive in [8].

Take `OC[P+](CO)(CO)CO`: in experiment [1], the result was inactive.

As for `O=C(OC1CCCCC1)c1ccccc1C(=O)OC1CCCCC1`, the call in [7], in experiment [6] and in experiment [10] was inactive. In [9], the AC50 is active: 70.5 µM.

As for `CC(C)(C)C(O)C(Oc1ccc(Cl)cc1)n1cncn1` (stereo unspecified), the outcome in experiment [11], in experiment [12], in [13] and in experiment [14] was inactive. Moreover, the AC50 in experiment [15] is active: 25 µM; in experiment [3] it was active: 27.3 µM and active: 25.7 µM; in [16] it was active: 49.6 µM.

For the origin of these results see PubChem BioAssay (EPA / NIEHS).
